Test results taken from PubChem BioAssay AID504832 (National Center for Advancing Translational Sciences (NCATS), 2011).
Hit rate of the full screen: of about 310,000 compounds, about 18,000 (5.8%) were called active. The inconclusive results got no clear call from the source; some entries with a clear call stand among them for comparison. The call rests on the fitted dose curve; in most records, active means well fitted inhibition curve with a large enough effect; inconclusive means small, poorly fitted or top-dose-only effect, or another doubt; inactive means no such curve, though single readings can be large or run the other way. No potency is given beside an inconclusive call; the fits are too rough.

Assay: Primary qHTS for delayed death inhibitors of the malarial parasite plastid, 48 hour incubation
Conditions: P. falciparum luciferase growth in erythrocytes; series mostly up to 28.7 µM; activity change, negative = inhibition: at the top concentration
How it was run: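 In quantitative HTS format, infected erythrocytes bearing luciferase-reporter parasites were treated for a single generation at 37 C. Luminescence after adding detection reagent served as the growth measure.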
On the % scale 0 is the no-effect control and ±100 the full control effect; potency means the concentration at half of the fitted maximal effect; tags describe the fitted curve by direction and shape.

Q: For `CC(=O)N1c2ccc(S(=O)(=O)NCCC(=O)NCCc3ccc(C)cc3)cc2CC1C` (stereo not given), which Potency is on record?
A: inconclusive [inhibitor, single point]

Q: For `COCCn1c(-c2ccc(Cl)cc2)nc2c(c(=O)c3ccccc3n2C)c1=O`, which Potency is on record?
A: inconclusive [inhibitor, partial curve, poor fit]

Q: With `Cc1nc(CS(=O)(=O)c2ccccc2)cc(Sc2ccccc2Cl)n1` as the compound, how does the “activity change, negative = inhibition” value read?
A: inactive: -0.294%

Q: Which Potency does the source give for `COc1ccc(/C=C/CN2CCCC(C(=O)c3ccc(OC)c(F)c3)C2)cc1` (stereo not given) here?
A: inconclusive [inhibitor, single point]

Q: With `O=C(CN1C(=O)C2CC=CCC2C1=O)Nc1ccc(S(=O)(=O)Nc2nccs2)cc1` (stereo not given) as the compound, how does the “activity change, negative = inhibition” value read?
A: inactive: 81.5%

Q: For `COc1cc(/C=N\Nc2nncn2N)ccc1OC(C)=O`, which “activity change, negative = inhibition” value is on record?
A: inactive: 37.6%

Q: With `Cc1ccc(OC(C)C(=O)N2CCc3ccccc32)cc1` (stereo not given) as the compound, how does the Potency read?
A: active: 2.94 µM

Q: With `O=C(Nc1cc2c3c(c1)C1CCCC1CN3CC1CCCC21)c1ccccc1` (stereo not given) as the compound, how does the Potency read?
A: active: 13.1 µM

Q: Which “activity change, negative = inhibition” value does the source give for `O=C(COc1ccc(Br)cc1Cl)c1ccc[nH]1` here?
A: inactive: 232%

Q: For `CC(C)CCN1NC2(CCC(C)CC2)NC1=S` (stereo not given), which Potency is on record?
A: inconclusive [inhibitor, full curve, poor fit]

Q: With `COc1cccc(NC(=O)c2cc([N+](=O)[O-])ccc2NCc2cccnc2)c1` as the compound, how does the Potency read?
A: active: 10.4 µM

Q: Which Potency does the source give for `CC1CCN(C(=O)C2Cc3ccccc3CN2S(=O)(=O)c2ccc(F)cc2)CC1` (stereo not given) here?
A: inconclusive [inhibitor, full curve, poor fit]

Q: For `O=C(NCCCN1CCN(CCCNC(=O)c2ccccc2F)CC1)c1ccccc1F`, which “activity change, negative = inhibition” value is on record?
A: inactive: 3.81%

Q: Which Potency does the source give for `Cc1ccccc1C(=O)OC(C)C(=O)NCc1ccc2c(c1)OCO2` (stereo not given) here?
A: inconclusive [inhibitor, single point]

Q: Which Potency does the source give for `CCC(=O)N1CCN(c2ccccc2NC(=O)c2cccc(C)c2)CC1` here?
A: inconclusive [inhibitor, single point]

Q: With `Nc1cc(=O)[nH]c(SCC(=O)Nc2ccccc2Sc2ccc(Cl)cc2)n1` as the compound, how does the Potency read?
A: inconclusive [inhibitor, partial curve]

Q: For `CC(NC(=O)CCC(=O)c1ccccc1)c1ccc(F)cc1` (stereo not given), which Potency is on record?
A: inconclusive [inhibitor, single point]

Q: Which Potency does the source give for `Cc1ccc(C)c(/C=N/NC(=S)NC(C)C)c1` here?
A: inconclusive [inhibitor, single point]

Q: For `CC1(c2ccc(Cl)cc2)NC(=S)N2C1NC(=S)N2c1ccccc1` (stereo not given), which Potency is on record?
A: inconclusive [inhibitor, single point]

Q: For `O=C(CCCCCN1C(=O)[C@@H]2Cc3ccccc3CN2C1=O)Nc1cccc(F)c1`, which Potency is on record?
A: inconclusive [inhibitor, single point]

Q: For `CCOC(=O)N1CCC(n2c(SCC(=O)N3CCCC3)nc3ccccc3c2=O)CC1`, which Potency is on record?
A: inconclusive [inhibitor, partial curve, poor fit]

Q: Which “activity change, negative = inhibition” value does the source give for `COc1ccc(-c2n[nH]c(=S)n2Cc2ccccc2)cc1` here?
A: inactive: 40.4%

Q: For `COc1cccc(/C=N/NC(=S)Nc2cccc(S(=O)(=O)N(C)C)c2)c1`, which Potency is on record?
A: inconclusive [inhibitor, single point]

Q: With `COc1ccccc1CCC(=O)Nc1cccc(S(=O)(=O)N2CCCC2)c1` as the compound, how does the Potency read?
A: inconclusive [inhibitor, single point]

Q: Which Potency does the source give for `COc1ccc(C2c3[nH]c4ccccc4c3C[C@H]3C(=O)N(C4CCN(Cc5ccccc5)CC4)CC(=O)N23)c(OC)c1` (stereo not given in full) here?
A: active: 0.828 µM

Q: For `C/[N+]([O-])=C1\Cc2ccccc2C1=O`, which “activity change, negative = inhibition” value is on record?
A: inactive: -10.4%

Q: Which Potency does the source give for `CCC1CN(C(=O)N2CCC(C(=O)NCc3ccc(C)o3)CC2)c2cc(C)ccc2O1` (stereo not given) here?
A: inconclusive [inhibitor, single point]

Q: With `c1ccc(Oc2cccc(CN3CCOCC3)c2)cc1` as the compound, how does the “activity change, negative = inhibition” value read?
A: inactive: 2.05%

Q: With `COc1ccccc1N1N=C(c2cccs2)CC1c1ccccc1` (stereo not given) as the compound, how does the Potency read?
A: inconclusive [inhibitor, single point]

Q: With `Cc1cc(C=O)c(C)n1-c1ccc(N2CCCC2)c([N+](=O)[O-])c1` as the compound, how does the Potency read?
A: inconclusive [inhibitor, single point]

Q: With `CN(Cc1ccccc1)C(=O)CCSc1nc(-c2ccc3c(c2)OCO3)cc(C(F)(F)F)n1` as the compound, how does the Potency read?
A: active: 9.28 µM

Q: For `CCC(=O)Nc1ccc(C(=O)Nc2ccc3c(c2)C(=O)N(CC2CCCO2)C3=O)cc1` (stereo not given), which Potency is on record?
A: inconclusive [inhibitor, partial curve, poor fit]

Q: For `CCC(=O)Nc1ccc(Cl)c(NC(=O)c2c(OC)cccc2OC)c1`, which Potency is on record?
A: inconclusive [inhibitor, single point]

Q: For `CC1CCCCN1c1nc2nonc2nc1N1CCCCC1C` (stereo not given), which Potency is on record?
A: inconclusive [inhibitor, partial curve, poor fit]

Q: With `O=c1c2ccccc2nc(COc2ccccc2)n1/N=C/c1cc([N+](=O)[O-])ccc1O` as the compound, how does the Potency read?
A: active: 2.62 µM

Q: With `COc1cccc(N(CC(=O)Nc2cccc(C(C)=O)c2)S(C)(=O)=O)c1` as the compound, how does the Potency read?
A: inconclusive [inhibitor, single point]

Q: Which Potency does the source give for `COC(=O)c1ccc(C(NC(=O)OCc2ccccc2)/C(F)=C/[C@@H](C)C(=O)NCc2ccc(-c3ccccc3)cc2)cc1` (stereo not given in full) here?
A: inconclusive [inhibitor, single point]

Q: Which “activity change, negative = inhibition” value does the source give for `Cc1cc(C)n(Cc2cccc(C(=O)N/N=C/c3cccnc3)c2)n1` here?
A: inactive: 8.97%

Q: For `COc1ccc(-c2cc(C(F)(F)F)nc(SCC(=O)N3CCOCC3)n2)cc1OC`, which “activity change, negative = inhibition” value is on record?
A: inactive: -23%

Q: With `O=C(NC1CCCCCC1)c1cc(S(=O)(=O)N2CCCCC2)ccc1N1CCOCC1` as the compound, how does the Potency read?
A: active: 11.7 µM

Q: With `O=C(CCNc1cccc(Cl)c1)c1cccs1` as the compound, how does the “activity change, negative = inhibition” value read?
A: inactive: -5.31%

Q: For `COc1ccc(-c2nnc(-c3cccs3)o2)cc1OC`, which “activity change, negative = inhibition” value is on record?
A: inactive: 113%

Q: With `COC(=O)C1=C(c2ccc(F)cc2OCc2ccccc2)C[C@@H]2CC[C@H]1N2C(=O)NCc1ccc(Cl)cc1` as the compound, how does the Potency read?
A: active: 11.7 µM

Q: Which Potency does the source give for `CCN(CC)S(=O)(=O)c1ccc(N2CCOCC2)c(NC(=O)CC(C)(C)C)c1` here?
A: inconclusive [inhibitor, single point]

Q: For `COc1cc2nc(CN(C)Cc3ccc(SC)cc3)[nH]c(=O)c2cc1OC`, which Potency is on record?
A: inconclusive [inhibitor, single point]

Q: For `COc1ccc(C(=O)NCCc2ccc(Cl)cc2)cc1S(=O)(=O)N1CCCCC1C` (stereo not given), which Potency is on record?
A: inconclusive [inhibitor, single point]

Q: Which “activity change, negative = inhibition” value does the source give for `COc1ccc(NS(=O)(=O)c2nnc(NC(=O)c3ccccc3F)s2)cc1` here?
A: inactive: 57.9%

Q: Which Potency does the source give for `Nc1c(C(=O)OC2CCCCC2)c2nc3ccccc3nc2n1CC1CCCO1` (stereo not given) here?
A: inconclusive [inhibitor, single point]

Q: Which Potency does the source give for `COc1cccc(NC(=O)COC(=O)C2CC3CCCC(C2)C3=O)c1` (stereo not given) here?
A: inconclusive [inhibitor, single point]

Q: Which Potency does the source give for `COc1ccccc1N1C(=O)CC(Nc2ccc(N3CCOCC3)cc2)C1=O` (stereo not given) here?
A: inconclusive [inhibitor, single point]

Q: For `O=C(c1ccc([N+](=O)[O-])cc1Cl)N1CCN(c2ccccn2)CC1`, which “activity change, negative = inhibition” value is on record?
A: inactive: -1.59%

Q: With `Cc1ccc(OCc2n[nH]c(=S)n2-c2ccc(Br)cc2)cc1` as the compound, how does the Potency read?
A: inconclusive [inhibitor, full curve, poor fit]

Q: For `COc1cc(C(=O)NCC(c2ccco2)N(C)C)cc(OC)c1OC` (stereo not given), which Potency is on record?
A: inconclusive [inhibitor, single point]

Q: Which “activity change, negative = inhibition” value does the source give for `COC(=O)C1CCN(C(=O)CCC2CCCCC2)CC1` here?
A: inactive: 25.9%

Q: Which “activity change, negative = inhibition” value does the source give for `COc1ccc(NC(=S)N2CCN(C(=O)c3ccco3)CC2)cc1` here?
A: inactive: 40.9%

Q: With `CC(C)Oc1ccc(C2c3c(oc4ccccc4c3=O)C(=O)N2CCCN2CCOCC2)cc1` (stereo not given) as the compound, how does the Potency read?
A: inconclusive [inhibitor, single point]

Q: With `Fc1ccc(NC(=S)NN=C2CCCCCC2)cc1` as the compound, how does the Potency read?
A: inconclusive [inhibitor, partial curve, poor fit]

Q: Which “activity change, negative = inhibition” value does the source give for `NC(=O)COC(=O)CCCSc1nc2ccccc2s1` here?
A: inactive: -3.43%

Q: With `O=C(CCCn1c(=O)c2cccn2c2cccnc21)NCCc1ccc(Cl)cc1` as the compound, how does the Potency read?
A: inconclusive [inhibitor, single point]

Q: Which “activity change, negative = inhibition” value does the source give for `O=C(N/N=C/c1cccc(NC(=O)c2ccc(Cl)cc2)c1)c1cccc(O)c1` here?
A: inactive: 89.6%

Q: With `COc1ccc(N2C(=O)C(CC(=O)Nc3ccccc3)N(Cc3ccc4c(c3)OCO4)C2=O)cc1` (stereo not given) as the compound, how does the Potency read?
A: inconclusive [inhibitor, single point]

Q: For `CC(C)Oc1ccc(C(=O)Nc2ccccc2N2CCCC2)cc1`, which Potency is on record?
A: inconclusive [inhibitor, single point]

Q: Which Potency does the source give for `CCOC(=O)COc1ccc(S(=O)(=O)N2CCc3ccccc3C2)cc1` here?
A: inconclusive [inhibitor, single point]

Q: For `O=C(C1CCCO1)N(Cc1ccccc1)c1ccccc1` (stereo not given), which Potency is on record?
A: inconclusive [inhibitor, partial curve, poor fit]

Q: Which Potency does the source give for `CCCCOP(=O)(c1ccc(N(C)C)cc1)C(O)c1c(Cl)cccc1Cl` (stereo not given) here?
A: inconclusive [inhibitor, single point]

Q: Which “activity change, negative = inhibition” value does the source give for `Cc1nnc(SC(C)C(=O)NC2CCCc3ccccc32)n1-c1ccccc1` (stereo not given) here?
A: inactive: -12.3%

Q: For `O=C(CCc1ccc(S(=O)(=O)N2CCOCC2)cc1)Nc1nccs1`, which Potency is on record?
A: inconclusive [inhibitor, partial curve, poor fit]

Q: With `CC1=C(/C=C/C(C)=C/C=C/C(C)=C/C=C/C=C(C)/C=C/C=C(C)/C=C/C2=C(C)C(=O)CCC2(C)C)C(C)(C)CCC1=O` as the compound, how does the “activity change, negative = inhibition” value read?
A: inactive: 4.56%

Q: With `N#C/C(=C\c1c(F)cccc1Cl)c1nn(-c2ccccc2)c(-n2cccc2)c1C#N` as the compound, how does the Potency read?
A: active: 11.7 µM

Q: Which Potency does the source give for `CCOC(=O)c1cc(-c2ccccc2)n(CCC(=O)N2CCN(c3ccc(OC)cc3)CC2)c1C` here?
A: inconclusive [inhibitor, single point]
